Laboratory results as given in article PMC4336329 (PLoS ONE, 2015).
The campaign covered roughly 310,000 compounds. About 14,000 (4.5%) showed an effect of 50% or more. The effect is printed as a negative number. The list shows a part of the results.

Target: human ether-à-go-go-related gene (hERG) potassium channel (human, UniProt Q12809)
Experiment: primary screen, population patch clamp on CHO cells stably expressing hERG
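Note: peak tail current of the secondary pulse compared with the same well before compound.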

Chain of human ether-à-go-go-related gene (hERG) potassium channel (Q12809 whole entry, looked up): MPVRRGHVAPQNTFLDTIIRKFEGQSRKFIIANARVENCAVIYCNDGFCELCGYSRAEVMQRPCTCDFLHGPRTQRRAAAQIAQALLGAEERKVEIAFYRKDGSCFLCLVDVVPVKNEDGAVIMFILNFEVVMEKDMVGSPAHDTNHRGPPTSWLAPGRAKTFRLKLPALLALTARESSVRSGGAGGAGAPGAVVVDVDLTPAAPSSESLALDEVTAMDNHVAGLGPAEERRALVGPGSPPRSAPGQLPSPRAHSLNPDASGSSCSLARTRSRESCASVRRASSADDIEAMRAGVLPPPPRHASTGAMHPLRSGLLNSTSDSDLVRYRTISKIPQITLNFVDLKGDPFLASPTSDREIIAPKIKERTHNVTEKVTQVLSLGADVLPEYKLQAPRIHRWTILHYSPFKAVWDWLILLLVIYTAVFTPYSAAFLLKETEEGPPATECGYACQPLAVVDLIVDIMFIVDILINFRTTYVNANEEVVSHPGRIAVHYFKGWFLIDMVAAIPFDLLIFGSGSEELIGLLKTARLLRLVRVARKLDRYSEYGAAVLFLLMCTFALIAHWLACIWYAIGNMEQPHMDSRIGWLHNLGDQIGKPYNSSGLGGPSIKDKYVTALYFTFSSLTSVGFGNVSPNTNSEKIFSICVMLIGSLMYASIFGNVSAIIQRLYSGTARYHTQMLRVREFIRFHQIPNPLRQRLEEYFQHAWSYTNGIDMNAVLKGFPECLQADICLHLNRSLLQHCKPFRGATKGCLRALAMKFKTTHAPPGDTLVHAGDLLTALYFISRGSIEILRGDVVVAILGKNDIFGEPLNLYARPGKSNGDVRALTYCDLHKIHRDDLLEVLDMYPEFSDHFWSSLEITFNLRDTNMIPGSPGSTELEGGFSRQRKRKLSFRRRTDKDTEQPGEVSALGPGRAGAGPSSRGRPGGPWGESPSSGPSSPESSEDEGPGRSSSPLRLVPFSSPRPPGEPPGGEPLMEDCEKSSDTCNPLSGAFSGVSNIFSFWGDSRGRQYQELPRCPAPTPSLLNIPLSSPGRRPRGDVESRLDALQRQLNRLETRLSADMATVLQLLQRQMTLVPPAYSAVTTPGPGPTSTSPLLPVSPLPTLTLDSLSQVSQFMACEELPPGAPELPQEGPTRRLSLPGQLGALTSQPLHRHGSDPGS

| SMILES | hERG current change (%, negative = inhibition) at 10uM [%] |
| --- | --- |
| CCOC(=O)N1CCN(C(=O)Nc2ccc3oc(C)nc3c2)CC1 | 3.86 |
| N#Cc1cc([N+](=O)[O-])ccc1NC(=O)COC(=O)CCC1CCCCC1 | 23.9 |
| CC1CN(C(=O)c2cc3ccccc3oc2=O)CC(C)O1 (stereo not drawn) | -7 |
| CCn1c(SCc2ccc(C#N)cc2)nnc1-c1cccc(Cl)c1 | -73.6 |
| CC1(C)CC(=O)C(C=NCCN2CCN(C3CC(=O)N(c4ccc(Cl)c(Cl)c4)C3=O)CC2)=C(O)C1 (stereo not drawn) | -50.2 |
| CCOC(=O)N1CCC(N(CCN(C)C)C(=S)Nc2cc(Cl)cc(Cl)c2)CC1 | -1.07 |
| Cc1occc1C(=O)N1CCN(c2ccc(Cl)c(Cl)c2)CC1 | -17.9 |
| C/C(CC(=O)NCc1ccco1)=N\NC(=O)COc1ccc(C)cc1 | -1.31 |
| O=c1[nH]c(C2CCCN(S(=O)(=O)c3ccccc3)C2)nc2c1nnn2Cc1ccccc1 (stereo not drawn) | -18.4 |
| CN1C(=O)C(CC(=O)NCCc2ccccc2)N(NC(=O)c2ccc(Cl)cc2)C1=S (stereo not drawn) | 1.83 |
| Cc1ccc(Oc2nc3ccccc3n3c(C)nnc23)cc1 | 11 |
| CC(=O)Oc1ccccc1C(=O)Oc1ccc(/C=N/n2cnnc2)cc1 | -25.1 |
| O=[N+]([O-])c1ccc2c(c1)S(=O)c1ccccc1-2 (stereo not drawn) | 7.17 |
| CC(Sc1n[nH]c(-c2ccccc2F)n1)C(=O)Nc1ccc(S(N)(=O)=O)cc1 (stereo not drawn) | 6.45 |
| O=C(NCC(=O)N(c1ccc(Cl)cc1)C(C(=O)NC1CCCC1)c1cccnc1)c1ccco1 (stereo not drawn) | 16.6 |
| COc1ccc(/C=N/n2cnc3c(sc(=S)n3-c3ccccc3)c2=O)cc1 | 13.4 |
| COc1ccc(C2(C)NC(=O)N(Cc3cc(Cl)cc4c3OCOC4)C2=O)cc1OC (stereo not drawn) | -4.4 |
| CCCCC(=O)NC(c1ccccc1OC)c1ccc2cccnc2c1O (stereo not drawn) | -5.73 |
| COc1ccc(NC(=O)Nc2ccccc2F)cc1Cl | 32.4 |
| COc1cc(C(=S)N2CCC(Cc3ccccc3)CC2)ccc1OCC(N)=O | -46.8 |
| CC(C)C1/C(=N/O)CC(c2ccccc2)NC1c1ccccc1 (stereo not drawn) | 11.3 |
| O=C(NCCCl)Nc1cccnc1Cl | 12.2 |
| CCOC(=O)c1ccc(NC(=S)N2CCN(CCN=CC3=C(O)CC(c4ccccc4)CC3=O)CC2)cc1 (stereo not drawn) | -19.9 |
| O=S1(=O)CCC(NC(=S)NCCNC(=S)NC2CCS(=O)(=O)C2)C1 (stereo not drawn) | 8.43 |
| CN1CC2(Cc3c1ccc1ccccc31)C(=O)OC(C)(C)OC2=O | 18 |
| CC1=C(C(=O)OCc2ccccc2)C(c2ccc3c(c2)OCO3)NC(=O)N1CCCC(=O)O (stereo not drawn) | 11 |
| CC(=O)N1CCN(S(=O)(=O)c2cccc(C(=O)NC3CCCc4ccccc43)c2)CC1 (stereo not drawn) | -6.31 |

| SMILES | hERG current change (%, negative = inhibition) at 10uM [%] |
| --- | --- |
| O=C(CSc1nc2ccccc2o1)N1c2ccccc2Sc2ccccc21 | -19.9 |
| CCOC(=O)c1ccc(N=Nc2c(C)c(C#N)c(O)[nH]c2=O)cc1 | 1.91 |
| O=C1c2ccccc2S(=O)(=O)N1CC1CC(c2ccccc2Cl)=NO1 (stereo not drawn) | -4.75 |
| Cc1c(OCC(=O)NCc2ccncc2)ccc2c3c(c(=O)oc12)CCC3 | -0.0872 |
| CC(=O)N1CCc2cc(S(=O)(=O)NC(CC(C)C)C(=O)Nc3cc(C)ccn3)ccc21 (stereo not drawn) | 14.1 |
| Cc1noc(C)c1C(=O)Nc1ccc(C#N)cc1 | 17.3 |
| Cn1cccc1/C=N\NC(=O)C1COc2ccc(C(C)(C)C)cc2O1 (stereo not drawn) | -3.42 |
| CC(NC(=O)CN(C)Cc1cccc(Cl)c1)c1ccccc1 (stereo not drawn) | -15.3 |
| COc1ccccc1C(=O)Nc1ccc(S(=O)(=O)Nc2nccs2)cc1 | 15.7 |
| CC1CC(C)CN(C(=O)Cn2c(=O)n(CCCCC(=O)NCc3ccco3)c(=O)c3ccccc32)C1 (stereo not drawn) | -10.5 |
| O=C(COc1ccc(Br)cc1)OCc1nnc(-c2ccccc2)o1 | 9.77 |
| O=C(/C=C/c1cccc(F)c1)Nc1nccs1 | 12 |
| O=C(c1nsnc1-c1ccccc1O)N1CCCCC1 | 9.56 |
| O=c1[nH]c(CN2CCN(c3ccccn3)CC2)nc2c(Br)cc(Br)cc12 | -33.2 |
| CC(C)C[C@H](N)C(=O)N1CCC(C(=O)N[C@H](C(=O)NCc2ccc(F)cc2)C(C)C)CC1 | -3.91 |
| COc1ccnc(Oc2ccc(Cl)cc2)c1C#N | 0.996 |
| COc1ccc(N2CCN(C(=O)CN3CCN(C(c4ccccc4)c4ccccc4)CC3)CC2)cc1.Cl | -46 |
| COCCNc1nnc(SCC(=O)Nc2cc(-c3ccccc3)nn2-c2ccccc2)s1 | -50.9 |
| CCCCOc1[nH]c2nc(-c3ccco3)n(Cc3ccco3)c(=N)c2c1C#N | -69.1 |
| Cc1ccc2c(c1)c(C)cc(=O)n2CCC(=O)O | 6.86 |
| O=C(NCCN1CCOCC1)/C(=C/c1ccco1)NC(=O)c1ccccc1 | -5.48 |
| CCCOc1ccc([N+](=O)[O-])cc1C1NC(=S)NC(c2ccccc2)=C1C(=O)OCC (stereo not drawn) | 13.9 |
| CCCCOC(=O)C1CCCC(C(=O)OCCCC)N1.Cl (stereo not drawn) | 9.8 |
| CC1=Nc2ccccc2/C1=C\c1nc(-c2ccc(C(F)(F)F)cc2)oc1O | 15.3 |
| Cc1ccc(S(=O)(=O)CC(=O)c2cc3cccc(C)c3oc2=O)cc1 | 17.1 |
| Cc1ccc(CNC(=O)c2nnn(CC(=O)Nc3cccc(C)c3C)c2N)cc1 | 16.1 |
| COc1ccc(CNS(=O)(=O)c2ccc(F)c(C(=O)Nc3ccc(OC)cc3)c2)cc1 | -4.19 |
